The BET-seq Pho4 binding data (Le et al. 2018)
This is one part of the list. Values were computed here from the reads of four pooled replicates and scatter widely.

These sequences were tested against T1, Pho4 (S. cerevisiae) (UniProt P07270) (assay: relative binding free energy (BET-seq); higher = weaker binding). Settings: reference: library average.
T1 sequence: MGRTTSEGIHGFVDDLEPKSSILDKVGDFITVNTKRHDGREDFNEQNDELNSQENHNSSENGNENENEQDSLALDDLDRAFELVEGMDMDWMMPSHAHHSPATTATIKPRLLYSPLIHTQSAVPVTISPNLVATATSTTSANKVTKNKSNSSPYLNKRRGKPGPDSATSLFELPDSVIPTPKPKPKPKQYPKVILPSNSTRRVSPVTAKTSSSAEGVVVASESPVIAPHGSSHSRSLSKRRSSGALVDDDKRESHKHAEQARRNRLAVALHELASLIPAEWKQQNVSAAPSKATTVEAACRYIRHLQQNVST

Row | Sequence | relative binding free energy
1 | CATAGCACGTGTGGTT | -0.03 kcal/mol
2 | TTTCTCACGTGTTAAG | 0.21 kcal/mol
3 | GGGTGCACGTGATTAG | -0.01 kcal/mol
4 | TCTGTCACGTGGTCGT | 0.05 kcal/mol
5 | ATAGTCACGTGGTCAT | 0.04 kcal/mol
6 | TAAGTCACGTGTTGAA | 0.04 kcal/mol
7 | CTGTGCACGTGAGGTG | 0.28 kcal/mol
8 | ATGAGCACGTGTCGGC | 0.03 kcal/mol
9 | CGGGTCACGTGGTGGT | 0.03 kcal/mol
10 | TGGGACACGTGGGACA | -0.05 kcal/mol
11 | GCAGGCACGTGTGATG | -0.05 kcal/mol
12 | TTATACACGTGTCTGG | 0.11 kcal/mol
13 | TGAGTCACGTGAGGTC | 0.35 kcal/mol
14 | AGGGGCACGTGGGAAC | -0.16 kcal/mol
15 | TTGTACACGTGTTGGA | 0.15 kcal/mol
16 | AATGGCACGTGGTTCT | -0.26 kcal/mol
17 | GAGTTCACGTGCGGCG | 0.26 kcal/mol
18 | TATGTCACGTGAAAGA | 0.3 kcal/mol
19 | TTTAGCACGTGCGGCT | -0.12 kcal/mol
20 | CGGTGCACGTGATTGT | 0.01 kcal/mol
21 | AGTGTCACGTGTTAAA | 0.15 kcal/mol
22 | TACGGCACGTGTTCGG | -0.03 kcal/mol
23 | CCGTTCACGTGGGAGG | 0.17 kcal/mol

Row | Sequence | relative binding free energy
24 | AGATTCACGTGGAAGG | 0.3 kcal/mol
25 | AGTAACACGTGGCTTT | -0.03 kcal/mol
26 | TTCTTCACGTGTTTAT | 0.37 kcal/mol
27 | TTACTCACGTGTGGCG | 0.21 kcal/mol
28 | TGTGGCACGTGCTTAT | -0.12 kcal/mol
29 | TGGTGCACGTGCGGTA | -0.1 kcal/mol
30 | GGCTGCACGTGGGTTT | -0.05 kcal/mol
31 | CTGTACACGTGGGAGG | -0.06 kcal/mol
32 | GTGGGCACGTGCGATG | -0.08 kcal/mol
33 | TATTACACGTGGGCGA | -0.03 kcal/mol
34 | TGTAGCACGTGTGAGT | 0.03 kcal/mol
35 | ATGGGCACGTGGGACT | -0.16 kcal/mol
36 | AACGTCACGTGGAGGT | 0.08 kcal/mol
37 | GGTATCACGTGCGTAG | -0.01 kcal/mol
38 | TTATACACGTGTTAAG | -0.14 kcal/mol
39 | GGAGGCACGTGCCGTT | -0.06 kcal/mol
40 | GTTTACACGTGAGACG | 0.33 kcal/mol
41 | AAGGGCACGTGGGCGT | -0.32 kcal/mol
42 | GGGATCACGTGTATGC | 0.24 kcal/mol
43 | TGGCGCACGTGTTGGA | 0.15 kcal/mol
44 | GGTTTCACGTGTGGGC | 0.38 kcal/mol
45 | TCGGGCACGTGGGTCA | -0.12 kcal/mol
46 | CGGGACACGTGGTGAG | -0.12 kcal/mol

Row | Sequence | relative binding free energy
47 | TCGGGCACGTGTTTGA | -0.13 kcal/mol
48 | TTTGGCACGTGCGACT | -0.05 kcal/mol
49 | GTGTGCACGTGGATGA | -0.02 kcal/mol
50 | ATGATCACGTGGGATG | -0.02 kcal/mol
51 | TATTTCACGTGCTAGG | 0.14 kcal/mol
52 | GTTTGCACGTGCTTCA | 0.08 kcal/mol
53 | GAGATCACGTGTAGTT | 0.31 kcal/mol
54 | GTTAACACGTGTACGT | 0.07 kcal/mol
55 | AGTGACACGTGTTGCG | 0 kcal/mol
56 | TGGATCACGTGTCTTT | 0.24 kcal/mol
57 | GGGCGCACGTGATGGC | 0.15 kcal/mol
58 | GGGGGCACGTGCCGAG | -0.2 kcal/mol
59 | ATTGACACGTGTGGGA | 0.22 kcal/mol
60 | ACGTGCACGTGGATGA | -0.04 kcal/mol
61 | GTCTTCACGTGCAGGG | 0.34 kcal/mol
62 | GGGTACACGTGGCGGC | 0.07 kcal/mol
63 | TGGTACACGTGTCAAG | 0.13 kcal/mol
64 | GAGCTCACGTGGGGGT | 0.12 kcal/mol
65 | TTCTTCACGTGGATGA | 0.18 kcal/mol
66 | GTATGCACGTGATTGT | 0.13 kcal/mol
67 | GTGCACACGTGTTAGT | 0.03 kcal/mol
68 | TGTTTCACGTGAGAGC | 0.51 kcal/mol
69 | TTCGGCACGTGGTAAT | -0.01 kcal/mol

Row | Sequence | relative binding free energy
70 | GAGGTCACGTGGCTGC | 0.19 kcal/mol
71 | TTAAGCACGTGTGGAG | 0.01 kcal/mol
72 | GTTCGCACGTGGGATG | -0.06 kcal/mol
73 | GTTTCCACGTGAGGTT | 0.35 kcal/mol
74 | GATGTCACGTGCGGTT | 0.07 kcal/mol
75 | TTAAGCACGTGGATGA | -0.1 kcal/mol
76 | ATTCACACGTGTAGTT | 0.22 kcal/mol
77 | GTTGTCACGTGGTTTG | 0.13 kcal/mol
78 | TTATGCACGTGGAAGT | 0.01 kcal/mol
79 | GGTTGCACGTGCCGGT | 0.08 kcal/mol
80 | ATTCTCACGTGGCGGT | 0.19 kcal/mol
81 | TTGGTCACGTGAGGTA | 0.33 kcal/mol
82 | GGGGTCACGTGAGGGT | 0.38 kcal/mol
83 | GAGTCCACGTGACGGG | 0.44 kcal/mol
84 | GTGATCACGTGGCTTT | 0.02 kcal/mol
85 | AGAGTCACGTGGAGTA | 0.09 kcal/mol
86 | CGCCTCACGTGGGTGT | 0.02 kcal/mol
87 | TAAGGCACGTGTACGG | -0.07 kcal/mol
88 | AATATCACGTGTGATT | 0.19 kcal/mol
89 | TATGTCACGTGTGCTT | 0.1 kcal/mol
90 | GCGAACACGTGGGGTG | -0.09 kcal/mol
91 | CGGAGCACGTGGGAGG | -0.18 kcal/mol
92 | TGCGTCACGTGGTGAC | 0.07 kcal/mol

Row | Sequence | relative binding free energy
93 | TTTACCACGTGGGGCA | -0.15 kcal/mol
94 | GTTGTCACGTGGTTGT | 0.15 kcal/mol
95 | ATAGACACGTGAGTGG | 0.17 kcal/mol
96 | TTCGGCACGTGTATTA | -0.06 kcal/mol
97 | TAATTCACGTGGGGCG | 0.33 kcal/mol
98 | AGCGGCACGTGTGGGC | -0.15 kcal/mol
99 | TGCTTCACGTGTTTTG | 0.3 kcal/mol
100 | TTTGTCACGTGACGAG | 0.05 kcal/mol
101 | ATTGGCACGTGAATGT | 0.07 kcal/mol
102 | ATGTGCACGTGTGTCT | -0.03 kcal/mol
103 | ATGGACACGTGGGGCG | -0.14 kcal/mol
104 | AGGCTCACGTGTGGTT | 0.19 kcal/mol
105 | GAGTTCACGTGGAGGT | 0.33 kcal/mol
106 | TTTAACACGTGGGATT | 0.05 kcal/mol
107 | CGGTGCACGTGGCAAG | -0.13 kcal/mol
108 | CAGGCCACGTGGGGTT | -0.23 kcal/mol
109 | CGGGACACGTGAGGGT | 0.26 kcal/mol
110 | AGCATCACGTGTTTTA | 0.11 kcal/mol
111 | GGGTACACGTGTTTGA | 0.13 kcal/mol
112 | GGCTGCACGTGTGCGG | 0.08 kcal/mol
113 | TGGGGCACGTGGCTCG | -0.08 kcal/mol
114 | TATGCCACGTGGGGCG | -0.33 kcal/mol
115 | AAGGTCACGTGAAAAT | 0.42 kcal/mol
